# Test results: article PMC4242493
# This is one part of the list. The list includes weakly bound sequences.
# Target: MaxL homodimer (UniProt P61244)
# Experiment: universal protein-binding microarray (PBM)
# Details: PBS-based mixture, 10 nM His-tagged protein dimer, 2% milk, 200 ng/uL BSA, 50 ng/uL salmon testes DNA, 0.02% TX-100; detection with Alexa 488 anti-His …; high values mean tight binding; most listed sequences are background and not binding sites; double strand, one strand shown
# Chain of UniProt P61244 (P61244 whole entry): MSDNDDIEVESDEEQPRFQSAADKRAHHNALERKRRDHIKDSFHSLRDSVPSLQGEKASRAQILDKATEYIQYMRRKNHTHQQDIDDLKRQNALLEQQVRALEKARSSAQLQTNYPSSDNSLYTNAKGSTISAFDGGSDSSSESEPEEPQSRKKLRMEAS
row,Sequence,binding signal (normalized occupancy)
1,ACCGCAAG,0.0725
2,AACATACT,0.0837
3,ATCAGCCA,0.0757
4,AAAATCAA,0.0734
5,CAGCAGCA,0.0747
6,CGTAGTGC,0.0696
7,CACTCCCA,0.0792
8,CACTTGCC,0.0771
9,ACGCAAGT,0.0755
10,CCTTCCGC,0.0677
11,CCACGGAA,0.0752
12,GAATGGCC,0.0739
13,GGGGCGCA,0.0759
14,ATCGCTTA,0.0749
15,CGGCTTCA,0.0678
16,CTTAAACC,0.0746
17,GTACATAA,0.079
18,ACAAAAGC,0.0695
19,GGTCTCTA,0.0745
20,CATCCGAA,0.0798
21,CCTAGCAC,0.0765
22,CAGTTTAC,0.0779
23,CGTCTTAA,0.0682
24,GATGGACC,0.0737
25,ATACGAAG,0.0749

row,Sequence,binding signal (normalized occupancy)
1,TCGGGTCA,0.0737
2,AACTCGTA,0.0764
3,AACCCATC,0.0817
4,TCGCCGCA,0.0715
5,AACTGGTA,0.0716
6,CCCAAAGC,0.0696
7,CAAATGTC,0.0771
8,AGTCTTAG,0.0721
9,AGGTGAAA,0.0675
10,CTTGAGAA,0.0806
11,AGACCAGG,0.074
12,GCTACGGA,0.0738
13,AACTTGCC,0.0757
14,AGTCGTCA,0.0763
15,GAGATCAA,0.075
16,CACGTATC,0.0863
17,AACTTCTT,0.0704
18,CACCTGAG,0.0741
19,ACGTTAAC,0.0835
20,ACATGAAT,0.0965
21,ACAAATAG,0.0784
22,ACATCACG,0.0884
23,ATGTCGAA,0.0778
24,CGGACCCA,0.0773
25,AATGGCGA,0.0765

row,Sequence,binding signal (normalized occupancy)
1,TCTGGAAA,0.0735
2,AACCATGG,0.0757
3,CGACGCTC,0.0754
4,CCAGACGC,0.0713
5,CCATAAAC,0.0754
6,AATGGGCG,0.0783
7,GCGCACGC,0.0964
8,ACCATCGA,0.0777
9,ATAAAATG,0.0774
10,CCCGGTGA,0.0716
11,AGGACCCC,0.0725
12,GAGACTGA,0.0697
13,AAGTCCGG,0.0654
14,ATAATATA,0.0867
15,CGTCAATA,0.0761
16,GAGCAGTA,0.0709
17,GCAGAGGA,0.0715
18,ACAAGGGG,0.0766
19,CGTGCCGA,0.0758
20,GTAGTAGA,0.0725
21,GAACGAGA,0.0786
22,GCGTTGAA,0.0796
23,CGCGAGGC,0.0797
24,CAGACTCG,0.0745
25,TAAAACGA,0.0742

row,Sequence,binding signal (normalized occupancy)
1,TATCCGCA,0.0786
2,CGGAAATC,0.066
3,GGGGTAAA,0.0797
4,CTCTGCAG,0.0684
5,ATCAAGGC,0.0752
6,ACTTGTAA,0.081
7,CACGGTGC,0.0898
8,ATTGCTTC,0.0755
9,AACACTTC,0.0766
10,ATTTACCA,0.0786
11,ACTAAATG,0.0762
12,AACACCAA,0.0737
13,GAATAAGC,0.076
14,AGTCACTA,0.0739
15,ACTTAAGT,0.0703
16,CCGAAAAA,0.0734
17,GGGGCGAC,0.0713
18,ACACTTGG,0.0807
19,ACGGCGTC,0.0722
20,GGCACATA,0.0876
21,AAATCGAG,0.0683
22,CATATAAC,0.0843
23,AAACCAGC,0.0715
24,AACGGCTA,0.0659
25,CCGCAGAG,0.0718

row,Sequence,binding signal (normalized occupancy)
1,CGAGGAAG,0.0707
2,GTAAAGAA,0.0758
3,ACCCTCAA,0.0718
4,CGCTGGAA,0.0732
5,CTTTCGAC,0.0751
6,AAGTTATG,0.0839
7,AGTGACTG,0.0713
8,ATGCGCAG,0.0789
9,ACGCGGAC,0.083
10,AACACGCC,0.0909
11,AGCCCGCT,0.0701
12,CAATGGAG,0.0742
13,AGTCCACA,0.0765
14,ATAACAAG,0.075
15,AGACGTAC,0.0758
16,ACCCGCCA,0.0756
17,GGTTGCGA,0.0696
18,TACGGTGA,0.0721
19,AGTTTCCA,0.0748
20,TCAAGCCA,0.0742
21,CAGCTAAA,0.0704
22,GGGAAACA,0.0786
23,TCCAGCCA,0.0775
24,ACGATCAA,0.0748
25,AAGGTGGA,0.0747

row,Sequence,binding signal (normalized occupancy)
1,AGACGATG,0.0739
2,CATGGGTA,0.0914
3,ATAGGCAT,0.0877
4,ACACAATC,0.0756
5,ACGAGCTC,0.0759
6,AGCCGAAT,0.0749
7,CATCGAGA,0.0768
8,AAATACGA,0.0784
9,CCTTACTA,0.0759
10,CATCGGAC,0.0717
11,ATTGCGCC,0.0735
12,TCAAGTGA,0.0721
13,TAATAGTA,0.0774
14,CCAACGGG,0.0725
15,AAATTAAC,0.0725
16,GTGCTTCA,0.0817
17,CCTGTACA,0.0767
18,AGCATATG,0.103
19,ATCTTAAG,0.0746
20,GTAAGAAA,0.0769
21,AATGCGCT,0.0752
22,AGGCATAA,0.0727
23,TACGGGCA,0.0723
24,GCCTCTAA,0.0775
25,AAAGGGCC,0.0677

row,Sequence,binding signal (normalized occupancy)
1,CCGACGGC,0.0682
2,AGGATCAT,0.076
3,AACAAATC,0.0773
4,CAACAATC,0.0759
5,AATACTAC,0.078
6,CTTCACGA,0.078
7,GGCATTGA,0.0781
8,GCCTAACC,0.0773
9,CCGGAGCA,0.0692
10,ACTGGATG,0.0719
11,ATCGAGCC,0.0724
12,AAATTCCG,0.0713
13,ATACAGTG,0.0799
14,GTATAGGA,0.078
15,AAACCGGT,0.0705
16,GATAAATA,0.0806
17,GGACCTAA,0.0706
18,ATGGCAGA,0.0796
19,CCACTACC,0.0743
20,GACGGCGA,0.0752
21,AAAGAACC,0.0707
22,TCTAATAA,0.0821
23,ATGATGCC,0.0771
24,AGCCACAT,0.0918
25,GCAATGAC,0.0772

row,Sequence,binding signal (normalized occupancy)
1,TGTACACA,0.0795
2,AAGGCAGC,0.0677
3,CGACTTAG,0.0726
4,ACGAATAC,0.0755
5,AGGAATAC,0.0761
6,ATCTTTGC,0.0728
7,CATCCATC,0.0861
8,GCGAAACC,0.072
9,GAAAGGAA,0.071
10,CCATGAGA,0.0896
11,CCGTATCG,0.0716
12,ACGGTGAC,0.08
13,CCCTATAA,0.0822
14,ATTTGACC,0.0728
15,CATCCTCC,0.0798
16,GCGCCAGA,0.067
17,ACCACAGA,0.0782
18,AAAACATA,0.0798
19,ACGGGCGC,0.0712
20,GAGATTGA,0.0786
21,ACCGCATA,0.0828
22,TCACGAGA,0.0875
23,GATGAGCC,0.0743
24,AGGAATCG,0.0901
25,ATCCGAGG,0.0714

row,Sequence,binding signal (normalized occupancy)
1,ATACTTAA,0.0756
2,AAAAGTTA,0.0747
3,CGTTTCAG,0.0692
4,AAAGCTTA,0.0697
5,ATGGACCG,0.0753
6,GTTACACA,0.0807
7,AGGATCTA,0.0756
8,AAATTTAC,0.0697
9,TAGTAAAA,0.0779
10,GGCAACAC,0.0769
11,CGCCAAAG,0.0704
12,ATCGAGGA,0.0734
13,GCACCCGC,0.0769
14,CCACATGG,0.227
15,AACGTATT,0.0745
16,ACCGGCAC,0.079
17,ATAGCTTA,0.0699
18,ACGCCGGA,0.0718
19,AAAATTTG,0.0688
